The RNAGym collection of RNA variant scans (doi:10.7554/elife.90254)
Read counts are not given, so values of variants with three or more changes are uncertain.

B1: LINE1-mini (parent)
chain: GGCAGAGCUCAACACAGCGUGGCAAAGUGGCUGUGGCUAGACUGCC

Variants of: B1
Assay: self-cleavage, relative activity (ratio to wild type); higher = more cleavage; in vitro, sequencing; the parent is a self-cleaving ribozyme

| Variant | self-cleavage |
| --- | --- |
| GGCUGAGCUUAACACAGCGUGGCAAAGUGCCUGUGGCUAGACUGCC [A4U C10U G30C] | 0.08 |
| GGCUGAGCUCAACAUAGGGGGGCAAAGUGGCUGUGGCUAGACUGCC [A4U C15U C18G U20G] | 0.02 |
| GGCUGAGCUCAACACAGCGUGGGGAAGUGGCUGUGGCUAGACUGCC [A4U C23G A24G] | 0.06 |
| GGCUGAGCUAAACACAGCGUGGCAAAGUGGCUGUGGCUAUACUGCC [A4U C10A G40U] | 0.03 |
| GGCUGAGCUAAACACAGCGUGGCAAAGUGGCUGAGGCUAGAAUGCC [A4U C10A U34A C42A] | 0.05 |
| GGCUGAGCUCAAUACAGCGUGGCAAAGCCGCUGUGGCUAGACUGCC [A4U C13U U28C G29C] | 0.01 |
| GGCUGAGCUCAACACAGCGUGGAAAGGUGGCUGUGACUAGACUUCC [A4U C23A A26G G36A G44U] | 0.03 |
| GGCUGAGCUGAACACAGCGUGGCAAAGUGGCAGUGGCUAGACUGCC [A4U C10G U32A] | 0.03 |
| GGCUGAGCUCAACACAGCGUGGUAAAGUGGCUGUGGCUAUACUGCC [A4U C23U G40U] | 0.26 |
| GGCUGAGCUCAAUACAGCUUGGCAAAGUGGCUUUGGCUAGACUGCC [A4U C13U G19U G33U] | 0.08 |
| GGCUGAGCUCAAUACAGCGUGGCGAAGUGGCUGUGCCUAGACUGCC [A4U C13U A24G G36C] | 0.12 |
| GGCUGAGCUCAACACAGAGUGGCAAAGUGGCUUUGGCUAGAUUGCC [A4U C18A G33U C42U] | 0 |
| GGCUGAGCUCAACACAGUGUGGCAUAGUGGCUGUGGCUAGACUGCU [A4U C18U A25U C46U] | 0.06 |
| GGCUGAGCUCAAAACAGCGUGGCAAAGAGGCUGUGGCUAGACUGCC [A4U C13A U28A] | 0.38 |
| GGCUGAGCUGAACACAGCGUGGCAAAGUGGCUGUGCCUAGACUGCC [A4U C10G G36C] | 0.02 |
| GGCUGAGCUUCACACAGCGUGGCAAAGUGGCUGUGGCUACAAUGCC [A4U C10U A11C G40C C42A] | 0.01 |
| GGCUGAGCUCAACACAGCGUGGUAAAGUGGUAGUCGCUAGACUGCC [A4U C23U C31U U32A G35C] | 0.03 |
| GGCUGAGCUCAACACAGCGUGGUAAAGUGGCUGUAGCUAGACUGCC [A4U C23U G35A] | 0.91 |
| GGCUGAGCUCAACACAGGGUGGCAAAGUUGCUGUGGCUAGACUGCC [A4U C18G G29U] | 0.07 |

| Variant | self-cleavage |
| --- | --- |
| GGCUGAGCUUAACACAGCGUGGCAAAGAGGCUGUGGCUAGACUGCC [A4U C10U U28A] | 0.09 |
| GGCUGAGCUCAACACAGGGUGGCAAAGUGGCUGUGGCUAGAGUGCC [A4U C18G C42G] | 0.12 |
| GGCUGAGCUCAACACAGUGUGGCAAAGUGGCUCUGGCUAGACUGCC [A4U C18U G33C] | 0.03 |
| GGCUGAGCUCAAAACGGCGUGGCAAAGUGGCUGUGGCUAGACUGCC [A4U C13A A16G] | 0.04 |
| GGCUGAGCUCAACACAGUGUGGCAAAGUGGCAGUGGCUAUACUGCC [A4U C18U U32A G40U] | 0.01 |
| GGCUGAGCUCAACACAGAGUGUCAAAGUGGCUGUGGCUAGAAUGCC [A4U C18A G22U C42A] | 0.11 |
| GGCUGAGCUAAACACAGCGUGGCAAAGUGGCUGUGACUAGACUGCU [A4U C10A G36A C46U] | 0.02 |
| GGCUGAGCUCAACACAGUGUGGGAAAGUGGCUGUGGCUAGACUGCC [A4U C18U C23G] | 0.17 |
| GGCUGAGCUCAACACAGCGUGGAAAAGUGUCUGUGGCUUGACUGCC [A4U C23A G30U A39U] | 0.16 |
| GGCUGAGCUGAACACAGCGUGGCAAAGUGGCUGUGGCUAAACUGAC [A4U C10G G40A C45A] | 0.01 |
| GGCUGAGCUCAAAACAUCGUGCCAAAGUGGCUGUGGCUAGACAGCC [A4U C13A G17U G22C U43A] | 0.07 |
| GGCUGAGCUUAACAAAGCGUGGCAAAGUGGCUGUUGCUAGACUGCC [A4U C10U C15A G35U] | 0.02 |
| GGCUGAGCUCAACACAGCGUGGGCAAGUGACCGUGGUUAGACUGCC [A4U C23G A24C G30A U32C C37U] | 0.02 |
| GGCUGAGCUCAAGACAGUGUGGCAAAGCGGCUGUGGCUAGACUGCC [A4U C13G C18U U28C] | 0.1 |
| GGCUGAGCUCAACACAGUGUGGCAGAGUGGCUGUAGCUAGACUGCC [A4U C18U A25G G35A] | 0.08 |
| GGCUGAGCUCAACACAGAGUGGCAAAGUGGGUGUGGCUAGACUGCC [A4U C18A C31G] | 0.03 |
| GGCUGAGCUGAUCUCAGCGUGGCGAAGUGGCUGUAGCUAGACUGCC [A4U C10G A12U A14U A24G G35A] | 0.03 |
| GGCUGAGCUCAACACAGCGUGGGAAAGUGGCUUUGUCUAGACUGCC [A4U C23G G33U G36U] | 0.09 |
| GGCUGAGCUCAACACAGUGUGGCAAAGUGGCAGUGUCUAGACUGCC [A4U C18U U32A G36U] | 0.04 |

| Variant | self-cleavage |
| --- | --- |
| GGCUGAGCUCAACAAAGCGUGGCAAUGUGGCUGUGGAUAGACUGCC [A4U C15A A26U C37A] | 0.02 |
| GGCUGAGCUCAACACAGGGUGGCAAGGUGGCUGUGGCUAGACUUCC [A4U C18G A26G G44U] | 0.01 |
| GGCUGAGCUCAAUACAGCGUGGCAAAGUGGCUGUGGCUAGGCUGCC [A4U C13U A41G] | 0.09 |
| GGCUGAGCUCAACAAAGCAUGGAAGUGUGGCUGUGGCUAGACUGCC [A4U C15A G19A C23A A25G A26U] | 0.07 |
| GGCUGAGCUUAACACAGCGUGGCAAAGUGGCUGUCGCUAGACUGAC [A4U C10U G35C C45A] | 0.02 |
| GGCUGAGCUCAAUACAGCGUUGCAAAGUGGCUGUGGCUAGACUGCC [A4U C13U G21U] | 0.28 |
| GGCUGAGCUAAACACAGCGUGGCAAAGUUGCUGUGGCUAGACUGCC [A4U C10A G29U] | 0.04 |
| GGCUGAGCUCAACAGAGCGUGGCAAAGUGGCUCUGGCUAGACUGCC [A4U C15G G33C] | 0.06 |
| GGCUGAGCUCAACACAGCGUGGGAAAGUGCCUGUGGCUAGACUGCC [A4U C23G G30C] | 0.07 |
| GGCUGAGCUCAACAUAACGUGGUAAAGUGGCUGUGGCUAGACUGCC [A4U C15U G17A C23U] | 0.03 |
| GGCUGAGCUCAACACAGCGUGGUAAAGUGGCUGUGGCUAGACUCCC [A4U C23U G44C] | 0.14 |
| GGCUGAGCUCAAAACAGCGUGGCCAAGUGGCUGUGGCUAGACUGCC [A4U C13A A24C] | 0.04 |
| GGCUGAGCUCAAUACAGCGUGGCAAAGUGGCUGUGGCUCGACUGCC [A4U C13U A39C] | 0.07 |
| GGCUGAGCUGAACACAGCAUGGCAAAGUGGCUGUGGCUAUACUGCC [A4U C10G G19A G40U] | 0.03 |
| GGCUGAGCUCAACAAAGGGUGGCAAAGUGGCUGUGGCUAGACUGCC [A4U C15A C18G] | 0.07 |
| GGCUGAGCUCAAAACAGCGUGGCAAAGAGGCUGUGAAUAGACUGCC [A4U C13A U28A G36A C37A] | 0.14 |
| GGCUGAGCUCAACAUAGCGUGGCAAAGUGGCUGUGGCUGGACUGCC [A4U C15U A39G] | 0.07 |
| GGCUGAGCUCAAAACUGCGUGGCAAAGUGGCUGUGGCUAGCCUGCC [A4U C13A A16U A41C] | 0.04 |
